Experimental findings from PMC9303297, “Characterization of an autonomous pathway complex that promotes flowering in Arabidopsis” (Nucleic Acids Research, 2022) are described below.

For assay [1], the target named is T1, LD-3×Flag, full-length, from yeast (Arabidopsis thaliana, UniProt Q38796 1-953).
T1 construct: full-length cDNA in frame with 3×Flag in pAT424; source: also co-expressed with APRF1-Myc
T1 sequence (looked up): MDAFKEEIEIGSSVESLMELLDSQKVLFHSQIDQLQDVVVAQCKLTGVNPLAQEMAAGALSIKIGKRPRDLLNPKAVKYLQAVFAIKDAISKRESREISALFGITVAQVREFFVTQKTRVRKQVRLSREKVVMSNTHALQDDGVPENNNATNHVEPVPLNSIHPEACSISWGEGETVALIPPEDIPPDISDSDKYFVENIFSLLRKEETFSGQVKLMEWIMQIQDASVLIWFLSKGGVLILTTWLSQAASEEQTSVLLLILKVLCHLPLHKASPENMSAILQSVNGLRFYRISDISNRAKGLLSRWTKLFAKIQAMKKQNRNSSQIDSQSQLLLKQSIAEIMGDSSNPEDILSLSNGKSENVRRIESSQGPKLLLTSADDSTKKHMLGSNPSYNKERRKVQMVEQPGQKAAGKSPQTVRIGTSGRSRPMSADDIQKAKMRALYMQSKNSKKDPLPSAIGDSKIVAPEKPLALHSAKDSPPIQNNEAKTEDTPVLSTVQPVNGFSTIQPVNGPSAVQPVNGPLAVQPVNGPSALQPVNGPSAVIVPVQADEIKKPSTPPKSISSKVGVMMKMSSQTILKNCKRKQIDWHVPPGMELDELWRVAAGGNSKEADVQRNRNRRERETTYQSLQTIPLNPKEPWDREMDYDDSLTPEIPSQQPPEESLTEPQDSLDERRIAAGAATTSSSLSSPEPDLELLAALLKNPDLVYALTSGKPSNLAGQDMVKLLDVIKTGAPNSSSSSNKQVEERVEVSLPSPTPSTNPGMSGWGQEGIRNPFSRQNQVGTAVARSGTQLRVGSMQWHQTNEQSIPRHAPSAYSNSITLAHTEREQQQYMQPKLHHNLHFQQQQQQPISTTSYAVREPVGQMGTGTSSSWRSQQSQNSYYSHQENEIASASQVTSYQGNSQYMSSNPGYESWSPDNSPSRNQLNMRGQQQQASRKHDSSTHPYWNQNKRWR
Description: pull-down; purified Flag-tagged protein (from yeast) mixed with purified GST-tagged protein (from E. coli); Glutathione Sepharose 4B, 4°C, 1 h; 20 mM Tris-HCl pH 7.6, 150 mM NaCl, 1 mM DTT; blots with Flag and GST antibodies. Conditions: both partners purified.

A further assay concerns the target T2, GST-SDG26, full-length (Arabidopsis thaliana, UniProt Q84WW6 1-492).
T2 construct: SDG26, Arabidopsis thaliana; cDNA encoding full-length SDG26 in pGEX-6P-1; source: E. coli Transetta (DE3), purified (Glutathione Sepharose 4B)
T2 sequence (looked up): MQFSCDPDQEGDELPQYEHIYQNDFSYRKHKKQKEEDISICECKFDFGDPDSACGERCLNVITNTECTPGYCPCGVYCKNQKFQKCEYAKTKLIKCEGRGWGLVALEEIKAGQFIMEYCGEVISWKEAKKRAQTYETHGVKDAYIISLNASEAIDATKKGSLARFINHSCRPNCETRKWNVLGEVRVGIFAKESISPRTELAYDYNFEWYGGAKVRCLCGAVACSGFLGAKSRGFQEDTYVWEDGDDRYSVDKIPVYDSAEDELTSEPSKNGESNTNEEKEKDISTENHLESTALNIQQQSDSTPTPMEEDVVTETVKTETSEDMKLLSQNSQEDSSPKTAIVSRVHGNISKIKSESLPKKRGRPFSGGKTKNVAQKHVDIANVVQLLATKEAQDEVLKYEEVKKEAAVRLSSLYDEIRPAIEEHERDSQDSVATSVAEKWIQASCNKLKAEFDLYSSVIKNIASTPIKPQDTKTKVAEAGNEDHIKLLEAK
The assay is described as above. Conditions: both partners purified.

B1: GST-EFL4, full-length (natural protein, Arabidopsis thaliana, UniProt Q570U6 1-114, looked up)
chain: MEGDVLSGFGDRHNMDGKLLQSFQKSFVDVQDILDQNRLLINEINQNHESKQPDNLGRNVGLIKELNNNIRRVASLYGDLSHSFARSVDASSEGESSGTLKSDGKANQKRFRSG
notes: EFL4, ELF4-like protein, Arabidopsis thaliana; cDNA encoding full-length EFL4 in pGEX-6P-1; source: E. coli Transetta (DE3), purified (Glutathione Sepharose 4B)
On to B1, for which the binding result in assay [1] is given as “binds”.

B2: EFL4-3×Flag, full-length, from yeast (natural protein, Arabidopsis thaliana, UniProt Q570U6 1-114, looked up)
chain: B1 chain
notes: EFL4, ELF4-like protein, Arabidopsis thaliana; full-length cDNA in frame with 3×Flag in pAT424
Take B2: the binding result in the assay with GST-SDG26, full-length is “binds”.

B3: GST-FLD, full-length (natural protein, Arabidopsis thaliana, UniProt Q9CAE3 1-789, looked up)
chain: MVSFSAPKKRRRGRSQRSMSSLNSLPVPNVGLLPGNSNFVSSSASSSGRFNVEVVNGSNQTVKSYPGIGDEIITINKEATTEALLALTAGFPADSLTEEEIEFGVVPIVGGIEQVNYILIRNHIISKWRENISSWVTKEMFLNSIPKHCSSLLDSAYNYLVTHGYINFGIAQAIKDKFPAQSSKSSVIIVGAGLSGLAAARQLMRFGFKVTVLEGRKRPGGRVYTKKMEANRVGAAADLGGSVLTGTLGNPLGIIARQLGSSLYKVRDKCPLYRVDGKPVDPDVDIKVEVAFNQLLDKASKLRQLMGDVSMDVSLGAALETFRQVSGNDVATEEMGLFNWHLANLEYANAGLVSKLSLAFWDQDDPYDMGGDHCFLPGGNGRLVQALAENVPILYEKTVQTIRYGSNGVKVTAGNQVYEGDMVLCTVPLGVLKNGSIKFVPELPQRKLDCIKRLGFGLLNKVAMLFPYVFWSTDLDTFGHLTEDPNYRGEFFLFYSYAPVAGGALLIALVAGEAAHKFETMPPTDAVTRVLHILRGIYEPQGINVPDPLQTVCTRWGGDPFSLGSYSNVAVGASGDDYDILAESVGDGRLFFAGEATTRRYPATMHGAFVTGLREAANMAQSAKARGIRKRIDRNPSRNAHSCAILLADLFRDPDLEFGSFCIIFSRRNPDPKSPAILRVTLSEPRKRNEDPKADQHSNKILFQQLQSHFNQQQQIQVYTLLTRQQALDLREVRGGDEKRLYYLCETLGVKLVGRKGLGVGADSVIASIKAERTGRKLPSSSTSGTKSG
notes: FLD (FLOWERING LOCUS D), Arabidopsis thaliana; cDNA encoding full-length FLD in pGEX-6P-1; source: E. coli Transetta (DE3), purified (Glutathione Sepharose 4B)
B3: the binding result in assay [1] is “binds”.

B4: GST-EFL2, full-length (natural protein, Arabidopsis thaliana, UniProt Q94BS8 1-119, looked up)
chain: MESRMEGDVYSGFGERYQMDGKLLQNFQKSFVQVQDILDQNRLLINEINQNHESKQADHLGRNVGLIRELNNNIRTVASLYGDLSHSFARSVDASSEGESTGTLKSDGKANNQKRFRSG
notes: EFL2, ELF4-like protein, Arabidopsis thaliana; cDNA encoding full-length EFL2 in pGEX-6P-1; source: E. coli Transetta (DE3), purified (Glutathione Sepharose 4B)
On to B4, for which the binding result in assay [1] is listed as “binds”.

B5: EFL2-3×Flag, full-length, from yeast (natural protein, Arabidopsis thaliana, UniProt Q94BS8 1-119, looked up)
chain: B4 chain
notes: EFL2, ELF4-like protein, Arabidopsis thaliana; full-length cDNA in frame with 3×Flag in pAT424
Regarding B5, the binding result with GST-SDG26, full-length was “binds”.
